Reference: publication PMC4336329 (PLoS ONE, 2015)
About 2,200 (0.71%) of roughly 310,000 compounds showed an effect of 50% or more. The effect is printed as a negative number. The list shows a part of the results.

Biological target: human ether-à-go-go-related gene (hERG) potassium channel (human, UniProt Q12809)
Assay: primary screen, population patch clamp on CHO cells stably expressing hERG

Chain of human ether-à-go-go-related gene (hERG) potassium channel (Q12809 whole entry, looked up): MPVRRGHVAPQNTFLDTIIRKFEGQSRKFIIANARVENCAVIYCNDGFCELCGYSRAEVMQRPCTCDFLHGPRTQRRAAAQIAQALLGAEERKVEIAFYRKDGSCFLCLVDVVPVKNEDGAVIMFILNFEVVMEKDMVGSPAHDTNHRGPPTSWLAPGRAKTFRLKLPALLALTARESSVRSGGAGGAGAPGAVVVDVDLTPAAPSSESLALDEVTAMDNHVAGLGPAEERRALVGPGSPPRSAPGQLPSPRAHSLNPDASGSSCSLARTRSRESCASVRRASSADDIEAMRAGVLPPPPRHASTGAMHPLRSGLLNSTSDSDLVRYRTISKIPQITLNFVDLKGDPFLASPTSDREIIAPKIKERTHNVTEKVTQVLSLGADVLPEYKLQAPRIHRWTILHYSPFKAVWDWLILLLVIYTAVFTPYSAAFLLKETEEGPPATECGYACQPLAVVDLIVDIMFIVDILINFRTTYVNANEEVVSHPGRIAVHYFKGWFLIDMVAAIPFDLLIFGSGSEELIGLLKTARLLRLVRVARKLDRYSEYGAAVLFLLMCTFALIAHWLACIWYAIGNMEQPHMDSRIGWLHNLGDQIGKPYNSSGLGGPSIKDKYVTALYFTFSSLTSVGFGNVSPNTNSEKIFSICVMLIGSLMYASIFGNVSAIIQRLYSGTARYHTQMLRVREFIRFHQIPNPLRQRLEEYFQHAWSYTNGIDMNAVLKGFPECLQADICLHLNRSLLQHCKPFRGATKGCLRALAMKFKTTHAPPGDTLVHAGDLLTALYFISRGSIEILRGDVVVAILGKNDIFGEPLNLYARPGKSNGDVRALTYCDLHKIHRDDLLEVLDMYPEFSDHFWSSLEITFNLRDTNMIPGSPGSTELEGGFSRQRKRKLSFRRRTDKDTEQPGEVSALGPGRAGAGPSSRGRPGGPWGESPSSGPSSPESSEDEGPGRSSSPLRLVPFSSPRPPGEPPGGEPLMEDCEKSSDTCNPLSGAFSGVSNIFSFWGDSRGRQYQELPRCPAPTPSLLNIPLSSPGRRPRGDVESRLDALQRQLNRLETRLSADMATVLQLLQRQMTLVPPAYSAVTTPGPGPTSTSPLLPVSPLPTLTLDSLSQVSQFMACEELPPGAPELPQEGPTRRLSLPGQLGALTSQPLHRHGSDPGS

Row | SMILES | hERG current change (%, negative = inhibition) at 1uM [%]
1 | CNC(=O)c1cc(C(=O)c2ccc(F)cc2C(F)(F)F)c[nH]1 | 12.1
2 | NS(=O)(=O)c1ccc(CCNC(=O)C2CCN(S(=O)(=O)c3cccc4cccnc34)CC2)cc1 | -7.42
3 | COc1ccc(NC(=O)c2cc(SC)ccc2Cl)cc1 | 17
4 | CSc1nc(C)cc(SCCO)n1 | 7.89
5 | CC(=O)Nc1ccc(NC(=O)c2nc(S(=O)(=O)Cc3ccccc3)ncc2Cl)cc1 | 18.1
6 | CCOC(=O)c1oc2cccc(OCC(O)CNC(C)C)c2c1C.Cl (centres unmarked) | 7.86
7 | COc1ccc(N2CCN(CCCNC(=O)CN3CCN(Cc4ccccc4C)C3=O)CC2)cc1 | -16.7
8 | Cc1cccc(NC(=O)NC(C)C(c2cccs2)N2CCOCC2)c1 (centres unmarked) | 20.8
9 | Cn1c(COc2ccccc2)nnc1SCC(=O)NNC(=O)C1CCCCC1 | 14.1
10 | O=S(=O)(N/N=C/c1ccccc1F)c1ccccc1 | 5.46
11 | Cc1cc(C(=O)NNc2ccc(F)cc2F)no1 | 14
12 | COc1cc2c(cc1OC)-c1cc(Nc3ccc(F)cc3)nc(=O)n1CC2 | 3.46
13 | CCSc1nnc(NC(=O)CCCOc2ccc(C)cc2)s1 | 12.2
14 | Cc1cccc(C(=O)OCC(=O)Nc2ccc(N3CCCCC3)cc2)c1O | 18
15 | O=C(CN1CCC(c2nc3ccccc3s2)CC1)N1CCCCC1 | -0.402
16 | COc1cc(C2C(C(=O)/C=C/c3ccccc3)=C(O)C(=O)N2c2ccccn2)ccc1O (centres unmarked) | 18.3
17 | COc1ccc(C2C(=O)N(C3CCCCC3)CC(=O)N2Cc2ccc3c(c2)OCO3)cc1 (centres unmarked) | 4.4
18 | COc1ccc2nc(SCC(=O)NCc3ccc(OC)c(OC)c3)[nH]c2c1 | 12.6
19 | Fc1ccc(Oc2nc(-c3ccccn3)nc3ccccc23)cc1 | 13.8
20 | Cc1ccc(C(c2nnnn2Cc2cccs2)N2CCN(C(=O)c3ccco3)CC2)cc1 (centres unmarked) | -11
21 | CCSc1nc(C)c(CCOc2cccc(C)c2)c(=O)[nH]1 | 10.3
22 | COC(=O)C(NC(=O)CCc1c(C)nc2c(c(C)nn2-c2ccccc2)c1C)C(C)C (centres unmarked) | 8.09

Row | SMILES | hERG current change (%, negative = inhibition) at 1uM [%]
23 | Cc1oc(/N=C/c2ccc3c(c2)OCO3)c(C#N)c1C | 5.55
24 | N#CCC(=O)Nc1ccc(C(=O)NCc2ccccn2)cc1 | 5.8
25 | Cc1ccc(Nc2nc(CSc3nnc(-c4cccs4)o3)cs2)cc1 | 12.5
26 | COCCNC(=O)C(c1ccc(OC)cc1)N(C(=O)Cn1nnc2ccccc21)c1cccnc1 (centres unmarked) | 8.91
27 | COc1cc(NC(=S)N2CCN(S(=O)(=O)c3ccc(C)cc3)CC2)cc(OC)c1 | 1
28 | COc1ccccc1C(=O)NCCn1cc(SCC(=O)Nc2nnc(C)s2)c2ccccc21 | 12.8
29 | O=C(CNC(=O)c1cccs1)c1ccc(F)cc1 | 10.7
30 | CCOC(=O)c1sc2nc(C)nc(SCC(=O)N(C)C3CCS(=O)(=O)C3)c2c1C (centres unmarked) | 3.89
31 | CCOc1ccc2nc(NC(=O)C3CCCN(S(=O)(=O)c4c(C)noc4C)C3)sc2c1 (centres unmarked) | 12.2
32 | COc1nnc(-c2ccc(C)c(S(N)(=O)=O)c2)c2ccccc12 | 3.63
33 | COCCN(C(=O)CSc1nnc(-c2ccccc2F)o1)c1c(N)n(CC(C)C)c(=O)[nH]c1=O | 7.53
34 | COCCN(CCOC)S(=O)(=O)c1ccc(C(=O)Nc2nnc(CSC)o2)cc1 | 10.8
35 | COCCNc1oc(/C=C/c2ccc(F)cc2)nc1S(=O)(=O)c1ccccc1 | 14.8
36 | CCc1c(C)sc(NC(=O)CCc2ccc(OC)cc2)c1C(N)=O | 16.6
37 | CCCc1cc2c(cc1NS(=O)(=O)c1ccc(CCNC(C)=O)cc1)OCO2 | -33.9
38 | CCc1ccc(OCC(O)CN2CCN(c3ccc(OC)cc3)CC2)cc1.Cl (centres unmarked) | -15.2
39 | CC(=O)Oc1ccc(OC(C)=O)c(S(=O)(=O)c2ccc(C)c(C)c2)c1 | 15.3
40 | CSc1nn2c(C(F)(F)F)cc(C(F)(F)F)nc2c1C(N)=O | 11.4
41 | COc1cc(C(CC(=O)N2CCOCC2)c2c(OC)cc(OC)c3ccc(=O)oc23)cc(OC)c1OC (centres unmarked) | 14.6
42 | Cc1sc2ncnc(N(C)Cc3cccs3)c2c1C | 4.84
43 | O=C(Nc1ccc2nccnc2c1)c1ccco1 | 14
44 | COc1ccccc1CNS(=O)(=O)c1ccc2c(c1)NC(=O)CS2 | 8.67

Row | SMILES | hERG current change (%, negative = inhibition) at 1uM [%]
45 | COc1ccc(Nc2nccc(-c3cccc(N)c3)n2)cc1 | 20
46 | C/C(CC(=O)Nc1cc(Cl)ccc1Cl)=N\NC(=O)c1ccco1 | 6.61
47 | Cc1cc(C)c2c(CC(=O)O)c(C)[nH]c2c1 | 5.64
48 | N#CCC(=O)Nc1ccc(C(=O)N2CCN(S(=O)(=O)c3ccc4ccccc4c3)CC2)cc1 | 9
49 | COc1c(Br)cc(Br)cc1C(=O)Nc1ccccc1N1CCCC1 | 15.6
50 | COc1ccc(OC)c(CCNC(=O)CCc2cn(C)c3ccccc23)c1 | 14.2
51 | O=C(CN1CCN(c2ccccn2)CC1)N1c2ccccc2CCc2ccccc21.O=C(O)C(=O)O | 8.38
52 | O=C(O)Cc1sc(NC2CCCCC2)nc1-c1ccc(Cl)cc1 | 15.2
53 | CCOc1ccc(-n2cnnn2)cc1S(=O)(=O)N1CCC(C)CC1C (centres unmarked) | 7.73
54 | CCOCCCNC(=O)C(NC(=O)Cc1c[nH]c2ccccc12)c1ccc(OC)cc1 (centres unmarked) | 14.7
55 | O=C(NCCCCO)C(F)(F)C(F)(F)C(F)(F)C(=O)NCCCCO | 14.4
56 | Brc1ccccc1-c1nnc(CSc2nnnn2-c2ccccc2)o1 | 17
57 | Cc1onc(-c2ccccc2Cl)c1C(=O)Nc1nnc(Cc2ccc(Cl)cc2)s1 | 6.01
58 | CC(NS(=O)(=O)c1ccc(OCC(=O)N2CCOCC2)cc1)c1ccccc1 (centres unmarked) | 11.5
59 | O=S(=O)(NCCCNS(=O)(=O)c1c(F)cccc1F)c1ccc2c(c1)OCCO2 | 10.2
60 | NS(=O)(=O)c1ccc(NC(=S)Nc2ccn(Cc3cccc4ccccc34)n2)cc1 | 11.6
61 | O=C(O)c1cc(Nc2nc(N3CCOCC3)nc(N3CCOCC3)n2)ccc1Cl | 16
62 | CCOc1ccc(S(=O)(=O)N2CCN(CN3C(=O)CC4(CCCC4)C3=O)CC2)cc1 | 4.51
63 | O=C(Cc1cc(=O)[nH][nH]1)N/N=C/c1ccccc1[N+](=O)[O-] | 4.53
64 | CCCC(=O)NC(c1ccccc1)c1ccc2cccnc2c1O (centres unmarked) | 7.24
65 | COc1ccc(C2C(C#N)=C(N)Oc3cccc(O)c32)cc1 (centres unmarked) | 17.2
66 | COc1ccc(S(=O)(=O)N2CCC(C(=O)NCc3ccccn3)CC2)cc1C | 1.44

Row | SMILES | hERG current change (%, negative = inhibition) at 1uM [%]
67 | O=C(CN(Cc1ccc(Cl)c(Cl)c1)S(=O)(=O)c1ccccc1)N/N=C\c1ccc2c(c1)OCO2 | 5.91
68 | Cc1ccc(S(=O)(=O)CCC(=O)Nc2nc3c(s2)CCCC3)cc1 | 4.76
69 | CC(=O)Nc1ccc(NC(=O)c2cc([N+](=O)[O-])cc([N+](=O)[O-])c2)cc1 | 23.8
70 | Nc1nnc(CC2=CCCCC2)s1 | 13
71 | Cc1ccc(NC(=O)C(C)SCc2nc3sc(C)c(C)c3c(=O)[nH]2)nc1 (centres unmarked) | -2.28
72 | Cc1ccc(/C(O)=C2\C(=O)C(=O)N(C)C2c2cccc([N+](=O)[O-])c2)cc1 (centres unmarked) | 14.9
73 | CCn1c(SCc2ccc(F)cc2)nnc1C1CCN(S(=O)(=O)c2ccc(OC)cc2)CC1 | -18.8
74 | CCN1C(=O)C(=C2C=C(C)OC(C)=C2)C(=O)N(CC)C1=S | 9.14
75 | Cc1cccn2c(=O)c(/C=C(\C#N)S(=O)(=O)c3ccccc3)c(N3CCN(c4ccccc4)CC3)nc12 | 18.2
76 | CC(C)C(C)NC(=O)COc1ccc(S(=O)(=O)N2CCOCC2)cc1Cl (centres unmarked) | 11.9
77 | CC1CCCN(S(=O)(=O)c2cc3c4c(c2)CCN4C(=O)CC3)C1 (centres unmarked) | 6.9
78 | CCNC(=S)NN=C1c2ccccc2-c2ccccc21 | 9.39
79 | O=C1C2=C(C(c3ccccc3)=NCCN2)C(c2cccc([N+](=O)[O-])c2)N1c1ccccc1 (centres unmarked) | 6.18
80 | COP(=S)(OC)SCN1C(=O)c2ccccc2C1=O | 14.5
81 | O=C(NN1C(=O)c2ccc3c4c(ccc(c24)C1=O)CC3)c1ccc(Br)cc1 | 6.25
82 | CC(C)c1cc(C(=O)NCc2cccnc2)no1 | -5.86
83 | CCCCn1c(N)c(C(=O)NCc2cccs2)c2nc3ccccc3nc21 | -0.982
84 | CC(=O)N1CCN(Cc2nc3cc(NC(=O)C4CCCCC4)ccc3n2C)CC1 | -4.74
85 | O=C(CSc1nnc(-c2ccccc2F)o1)NC(=O)Cc1ccccc1 | 10.3
86 | CCN(c1ccccc1)S(=O)(=O)c1ccc(OCc2c(C)noc2C)cc1 | 2.73
